Source: PubChem BioAssay AID624417 (National Center for Advancing Translational Sciences (NCATS), 2012)
Out of some 410,000 compounds screened, about 6,400 (1.6%) were called active. Inconclusive means that the source gave no clear call. Such entries were picked first, then a sample of the others. Calls follow the shape of the dose curve; as a rule, active = well fitted inhibition curve with a large enough effect; inconclusive = small, poorly fitted or top-dose-only effect; inactive = no such curve, though single readings can be large or run the other way. A potency beside an inconclusive call is a rough fit, not a confirmed value.

biological target: Glucagon-like peptide 1 receptor (Homo sapiens) (UniProt P43220); experiment: qHTS of GLP-1 Receptor Inverse Agonists (Inhibition Mode); conditions: HEK293 GLP-1R CRE-luciferase, luminescence, 24 h, GLP-1R form is constitutively active; series mostly up to 38.3 µM; also: nearly all actives have a fitted effect of over 55% in size
Chain of UniProt P43220 (P43220 whole entry, looked up): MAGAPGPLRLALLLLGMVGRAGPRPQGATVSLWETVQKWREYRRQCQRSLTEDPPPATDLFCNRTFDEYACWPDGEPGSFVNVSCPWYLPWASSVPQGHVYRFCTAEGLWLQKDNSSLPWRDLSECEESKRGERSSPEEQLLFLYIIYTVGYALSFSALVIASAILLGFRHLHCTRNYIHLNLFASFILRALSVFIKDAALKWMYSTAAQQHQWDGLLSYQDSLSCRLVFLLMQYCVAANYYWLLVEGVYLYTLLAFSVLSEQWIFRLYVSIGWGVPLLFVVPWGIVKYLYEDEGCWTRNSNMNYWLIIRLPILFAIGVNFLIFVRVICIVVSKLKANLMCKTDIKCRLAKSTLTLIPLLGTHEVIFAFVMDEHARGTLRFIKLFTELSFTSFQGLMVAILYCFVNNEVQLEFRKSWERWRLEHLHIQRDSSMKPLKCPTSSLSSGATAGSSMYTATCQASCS
Method in brief: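 Luminescence readout: a drop in cAMP-driven luciferase signal flags inverse agonism at a constitutively active GLP-1R stably expressed in HEK293. Compound exposure lasted 24 hr at 37 deg C, 5% CO2.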
Potency is read from the fitted curve at half-maximal effect; tags tell the direction and shape of the fitted curve.

Potency, active:
Cc1ccc(Sc2ncccc2COC(=O)Nc2c(C)cccc2C)cc1 7.94 µM
O=C(Nc1cccc(Cl)c1)OCCOC(=O)Nc1cccc(Cl)c1 10 µM
O=C(C1CC1)N1CCc2cc(Br)cc(S(=O)(=O)Nc3ccc(F)c(F)c3)c21 22.4 µM
Cc1ccc(CNC(=O)CNC(=S)N(Cc2ccccc2)Cc2ccccc2F)cc1 10 µM

Potency, inconclusive:
CCOc1ccc(N(Cc2ccccc2)C(=O)c2nc(SC)ncc2Cl)cc1 10 µM [inhibitor, partial curve, poor fit]
CCOc1ccc(NC(=O)c2cnccn2)cc1 28.2 µM [inhibitor, single point]
CCCCC1CCCOC(C(=O)NCCNCCO)(C(F)(F)F)C1 (stereo not given) 8.91 µM [inhibitor, partial curve, poor fit]
CN(C)S(=O)(=O)c1cccc(NC(=O)c2ccc(S(=O)(=O)N3CCCCC3)cc2)c1 28.2 µM [inhibitor, single point]
O=C(c1ccc(OC2CCN(CCc3ccccc3)CC2)cc1)N1CCC[C@H]1CO 10 µM [inhibitor, single point]
Cc1sc2ncnc(N3CCC(C(=O)NNC(=O)COc4ccc(Br)cc4)CC3)c2c1C 28.2 µM [inhibitor, single point]
CC(C)CCOc1ccc(Cl)cc1CN1CCOCC1 28.2 µM [inhibitor, single point]
CNc1nc(C)cc(C)c1S(=O)(=O)c1ccc(C)cc1 28.2 µM [inhibitor, single point]
CC(OC(=O)CC1CCCCC1)C(=O)Nc1cccc(C#N)c1 (stereo not given) 28.2 µM [inhibitor, single point]
Cc1ccc(-c2cccc(NC(=O)C3C4C=CC(C4)C3C(=O)O)c2)o1 (stereo not given) 28.2 µM [inhibitor, single point]
CCOCCCNC(=S)Nc1ccc2nc(N3CCN(CC)CC3)cc(C)c2c1 4.47 µM [inhibitor, full curve, poor fit]
Cc1cc(C)cc(NC(=O)N2CCN(Cc3ccc4c(c3)OCO4)CC2)c1 8.91 µM [inhibitor, partial curve, poor fit]
c1ccc(COc2ncnc3c2ncn3CCCNCc2ccc3c(c2)OCO3)cc1 7.94 µM [inhibitor, partial curve, poor fit]
CCOC(=O)C1=CCN(S(=O)(=O)c2ccccc2C)C1c1cccc(F)c1 (stereo not given) 28.2 µM [inhibitor, single point]
CNC(=O)c1ccccc1NC(=O)c1ccc(C)c(S(=O)(=O)N2CCCCC2)c1 14.1 µM [inhibitor, single point]
CCOC(=O)c1c(NC(=O)COc2ccccc2OCC)sc2c1CC(C)(C)NC2(C)C 11.2 µM [inhibitor, partial curve, poor fit]
O=C(Nc1ncccc1O)c1ccc2ccccc2c1 3.55 µM [inhibitor, partial curve, poor fit]
COc1ccc(CCNC(=O)c2ccc3nc(N4CCCCC4)sc3c2)cc1OC 28.2 µM [inhibitor, single point]
CCOC(=O)C1(CCOc2ccccc2)CCN(Cc2ccc(CO)o2)CC1 3.16 µM [inhibitor, partial curve, poor fit]
CCC1CN(C(=O)N2CCC(C(=O)NCc3ccccc3OC)CC2)c2cc(C)ccc2O1 (stereo not given) 3.98 µM [inhibitor, partial curve, poor fit]
CC(C)CN1CCC(Oc2cccc(C(=O)NCCc3ccccc3)c2)CC1 28.2 µM [inhibitor, single point]
CCCCc1nc2ccccc2c(N)c1CCC (tested in a mixture with another compound) 10 µM [inhibitor, partial curve, poor fit]
C[C@@H]1C(NC(=O)c2ccccc2)CC2CC1C2(C)C (stereo not given in full) 14.1 µM [inhibitor, partial curve, poor fit]
O=S(=O)(NCC(c1ccco1)N1CCN(c2ccccc2)CC1)c1cc(F)ccc1F (stereo not given) 28.2 µM [inhibitor, partial curve, poor fit]
CCn1nc(C)c(CN2CCCC(CO)(Cc3cccc(Cl)c3)C2)c1C (stereo not given) 11.2 µM [inhibitor, partial curve, poor fit]
CCCOc1ccc(C(=O)N2CCC(c3nc4ccccc4s3)CC2)cc1 28.2 µM [inhibitor, single point]
CN(CC(=O)Nc1cccc(F)c1)C(=O)/C=C/c1ccc(S(=O)(=O)N2CCCCCC2)cc1 12.6 µM [inhibitor, single point]
CCCCNC(=O)CCC(=O)Nc1ccc2nc(N3CCC(C)CC3)cc(C)c2c1 15.8 µM [inhibitor, partial curve, poor fit]
CCOc1ccc(C(C)C)cc1S(=O)(=O)n1nc(C)cc1C 28.2 µM [inhibitor, single point]
COc1ccc(C2=NOC(C(=O)NCc3cccs3)C2)cc1 (stereo not given) 10 µM [inhibitor, partial curve, poor fit]
Cc1ccc(C(NC(=O)C2CCN(Cc3ccc(Cl)c(Cl)c3)CC2)c2ccccn2)cc1 (stereo not given) 1.78 µM [inhibitor, full curve, poor fit]
OCC(CO)(CO)NCC(O)CN1c2ccccc2Sc2ccccc21 (stereo not given) 28.2 µM [inhibitor, single point]
COC(=O)C=C1CCC2C3CCC4=CC(=O)C(Br)CC4(C)C3C(=O)CC12C (stereo not given) 5.62 µM [inhibitor, full curve, poor fit]
CN(CC(=O)Nc1ccccc1Br)C(=O)CNC(=O)c1ccc(Oc2ccccc2)cc1 28.2 µM [inhibitor, single point]
Cc1cc(Br)cnc1NC(=S)Nc1ccc(F)cc1F 28.2 µM [inhibitor, single point]
Cc1ccc(SSc2cc(C)ccc2N)c(N)c1 25.1 µM [inhibitor, single point]
O=C(Nc1ccc(F)cc1)c1nc2c(nnn2Cc2cccc3ccccc23)c(=O)[nH]1 0.501 µM [inhibitor, full curve, poor fit]
CC(C)(C)OC(=O)N(CCc1ccccc1)Cc1ccccc1OCc1cccc(NC(=O)/C=C/c2ccccc2)c1 6.31 µM [inhibitor, partial curve, poor fit]
Nc1ccccc1Oc1ccc2ccccc2c1 10 µM [inhibitor, partial curve, poor fit]
CCCCC[C@@H]1C=C(C(=O)O)[C@H](c2ccc(Cl)cc2)N1S(=O)(=O)c1ccc(C)cc1 31.6 µM [inhibitor, partial curve, poor fit]
COc1ccc(C(=O)Nc2ccc(OC)c([N+](=O)[O-])c2)cc1Br 11.2 µM [inhibitor, single point]
Cc1ccc(NC(=S)NC2CC3CCCC(C2)N3Cc2ccco2)cc1 (stereo not given) 10 µM [inhibitor, single point]
COC(=O)c1ccc2nc(-c3ccccc3)c(Cc3ccsc3)n2c1 15.8 µM [inhibitor, partial curve, poor fit]
Cc1ccc(S(=O)(=O)NCC(c2ccco2)N2CCc3ccccc32)cc1 (stereo not given) 10 µM [inhibitor, partial curve, poor fit]
Cc1ccc(S(=O)(=O)NC(=O)C2(C)CCN2C(=O)Cc2ccc(Cl)cc2Cl)cc1 (stereo not given) 20 µM [inhibitor, partial curve, poor fit]

Potency, inactive:
Cc1ccc(NC(=O)CN(C)CC(=O)Nc2ccccc2C#N)cc1
CCCNC(=O)N1CCN(c2nc(C(C)C)c3c(c2C#N)CC(C)(C)OC3)CC1
CCC1Oc2ccc(C)cc2N(CC(=O)NCc2cccc(OC)c2)C1=O (stereo not given)
Cc1ccnc(NS(=O)(=O)c2ccc(NC(=O)C3CC3)cc2)n1
CCn1c2ccccc2c2cc(NC(=O)COC(=O)c3ccccc3O)ccc21
CC(C)(C)OC(=O)N1CCC(c2c(C(=O)NCCN3CCOCC3)cnn2-c2cccc(Cl)c2)CC1
CC(C)(C)c1nn(-c2ccccc2)c2[nH]c(=O)c(CNCc3ccco3)cc12
NC(=O)c1ccc(NC(=O)CCCN2C(=O)NC3(CCCC3)C2=O)cc1
O=[N+]([O-])c1ccc(/C=N\NS(=O)(=O)c2ccc(F)cc2)o1
N#Cc1c(N2CCN(C(=O)c3ccco3)CC2)nc(-c2ccccc2)c2c1CCCC2
Cc1cc(C)cc(N2CCn3c2nc2c3c(=O)n(Cc3c(F)cccc3Cl)c(=O)n2C)c1
O=[N+]([O-])c1ccc(/C=N/n2cn[nH]c2=S)cc1
CCCNC(=O)c1cnn(-c2ccc(C)c(C)c2)c1C1CCN(C(=O)OC(C)(C)C)CC1
O=C(c1cnn(C(=O)COc2ccc(Cl)cc2)c1)c1ccccc1O
O=S(=O)(CCc1nc2ccccc2o1)c1ccc(Cl)cc1
CCOC(=O)C1(Cc2cccc(Cl)c2)CCCN(C(=O)c2ccnn2C)C1 (stereo not given)
